Structures can show the parent of a compound that is named as a salt. In all, about 2,800 compounds were measured (“cell viability relative to vehicle”: median about 1.1, lowest 2% from about 0.19 on). This is one part of the list.
tested on: NCI-H2228 parental; test: cell viability relative to vehicle (fraction of vehicle); NCI-H2228 is an ALK-positive lung cancer line and DTP means drug-tolerant persister; higher = less growth inhibition; conditions: 100 nM; treatment time 6 days
Summary of the method: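 Drug-tolerant persister NCI-H2228 cells, produced by 13 days in 1000 nM of a targeted drug, and their parental counterparts were seeded into 384-well plates and, the following day, given the 3114-agent TargetMol anti-cancer compound library at 100 nM or DMSO vehicle. After 6 days, the CellTiter-Glo 3D Cell Viability Assay was used to read ATP. Each entry reports viability compared with vehicle-treated cells.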

Structure (SMILES)	cell viability
CCCCCC/C=C\CCCCCCCc1cccc(O)c1C(=O)O [Ginkgolic acid C15:1]	1.17
N=C(N)N [Guanidine hydrochloride]	1.13
C=C[C@H]1CN2CC[C@H]1C[C@@H]2[C@@H](O)c1ccnc2ccc(OC)cc12 [Quinidine hydrochloride]	0.919
Cc1cn([C@H]2C[C@H](F)[C@@H](CO)O2)c(=O)[nH]c1=O [3'-Deoxy-3'-fluorothymidine]	0.969
COc1cc(/C=C/C(=O)N2CCC=CC2=O)cc(OC)c1OC [Piperlongumine]	1
CN1C(C(=O)Nc2ccccn2)=C(O)c2sccc2S1(=O)=O [Tenoxicam]	1.16
N#Cc1ccc2[nH]cc(CCCCN3CCN(c4ccc5oc(C(N)=O)cc5c4)CC3)c2c1 [Vilazodone HCl]	1.1
CCCOc1ccc2c(c1)CC[C@@H]1[C@@H]2CC[C@]2(C)[C@@H](OC)CC[C@@H]12 [Promestriene]	1.33
Cn1cc(C(=O)Nc2ccc3c(c2)OCCO3)c2ccccc2c1=O	1.09
OCCNC1CCCc2c1[nH]c1ccc(-c3ccccc3)cc21 (stereo not drawn)	1.1
FC(F)(F)c1ccc(CNc2ccc(Cc3c[nH]c4ncc(Cl)cc34)cn2)cn1 [Pexidartinib]	1.27
O=C(Nc1ccccc1)c1ccccc1O [Salicylanilide]	1.17
Cn1c(=O)c2[nH]cnc2n(C)c1=O [Aminophylline]	1.13
CS(=O)(=O)c1ccc(C2=C(c3ccccc3)C(=O)OC2)cc1 [Rofecoxib]	0.999
CC(=O)c1cc([N+](=O)[O-])c(Sc2cccc(Cl)c2Cl)s1	1.04
C#C[C@]1(O)CC[C@H]2[C@@H]3CCc4cc(OC5CCCC5)ccc4[C@H]3CC[C@@]21C [Quinestrol]	1.15
CN(C)CCC=C1c2ccccc2CCc2ccccc21 [Amitriptyline hydrochloride]	1.13
CCCNC(=O)[C@H]1O[C@@H]1C(=O)N[C@H](C(=O)N1CCC[C@H]1C(=O)OC)[C@@H](C)CC [CA-074 methyl ester]	1.05
Cc1[nH]c(=O)c(C#N)cc1-c1ccncc1 [Milrinone]	1.02
CC(C)[C@H](CO)Nc1nc(Nc2cccc(Cl)c2)c2ncn(C(C)C)c2n1 [Purvalanol A]	1.09
COc1cc(Cc2cnc(N)nc2N)cc(OC)c1OC [Trimethoprim]	0.914
COc1cc2c(cc1OC)CN(CCc1ccc(NC(=O)c3cc(OC)c(OC)cc3NC(=O)c3cnc4ccccc4c3)cc1)CC2 [Tariquidar]	1.01
COc1ccc(S(=O)(=O)NCc2ccc(C(=O)NCCc3ccc(Cl)cn3)cc2)cc1	1.14
CN(C(=O)c1ccc(F)cc1C(F)(F)F)C1CCN(c2nnc(-c3ccnn3C)c3ccccc23)CC1 [Taladegib]	0.997

Structure (SMILES)	cell viability
C=C1C[C@@]23CC[C@H]4[C@@](C)(CCC[C@@]4(C)C(=O)O[C@@H]4O[C@H](CO)[C@@H](O)[C@H](O)[C@H]4O)[C@@H]2CC[C@]1(O[C@@H]1O[C@H](CO)[C@@H](O)[C@H](O)[C@H]1O[C@@H]1O[C@H](CO)[C@@H](O)[C@H](O)[C@H]1O)C3 [Stevioside]	1.08
CCN(CC)CCOC(=O)C(c1ccccc1)C1CCCCC1 (stereo not drawn) [Drofenine hydrochloride]	1.13
O=C1NCCSc2c1sc1ccc(O)cc21	1.05
Cc1cc(N2CCCCC2)nc2ccccc12	1.18
CC(C)(C)c1ccc(CN2CCN(C(c3ccccc3)c3ccc(Cl)cc3)CC2)cc1 (stereo not drawn) [Buclizine HCl]	1.04
COc1cc2c(cc1OC)C(=O)C(CC1CCN(Cc3ccccc3)CC1)C2 (stereo not drawn) [Donepezil HCl]	1.08
CNCC[C@H](Oc1cccc2ccccc12)c1cccs1 [Duloxetine hydrochloride]	1.31
COc1ccc(S(=O)(=O)Nc2nc(-c3cccc([N+](=O)[O-])c3)cs2)cc1OC	1.04
C[C@@H](Oc1cc(-n2cnc3ccc(CN4CCN(C)CC4)cc32)sc1C(N)=O)c1ccccc1C(F)(F)F	0.156
COc1ccc2[nH]c(C(=O)N3CCC(CC(C)(C)O)CC3)cc2c1	1.18
COc1ccccc1-c1cc(Nc2cccc(CS(N)(=O)=O)c2)ncn1	1.22
CC1(COc2ccc3c(c2)ncn3-c2ccc3cccc(N4CCC(N)CC4)c3n2)COC1 [Crenolanib]	1.05
CN(C)C(=O)COC(=O)Cc1ccc(OC(=O)c2ccc(NC(=N)N)cc2)cc1 [Camostat mesilate]	0.829
C[C@@H]1CC[C@]2(C(=O)O)CC[C@]3(C)C(=CC[C@@H]4[C@@]5(C)CC[C@H](O)[C@@](C)(CO)[C@@H]5CC[C@]43C)[C@@H]2[C@]1(C)O [Rutundic acid]	1
N=C(N)NC(=O)c1nc(Cl)c(N)nc1N [Amiloride hydrochloride]	1.04
CCCC[S+]([O-])c1sc2nc(-c3cccs3)cc(-c3ccccc3)c2c1N (stereo not drawn)	1.26
Nc1ccccc1NC(=O)c1ccc(CNC(=O)OCc2cccnc2)cc1 [Entinostat]	0.786
c1ccc(CNc2ccccc2)cc1 [N-Phenylbenzylamine]	1.16
COc1cc(O)c(CC=C(C)C)c2c1C(=O)CC(c1ccc(O)cc1)O2 (stereo not drawn) [Isoxanthohumol]	1.04
CCC(=O)N1CCOc2c(cc(-c3ccc(OC)c(OC)c3)cc2OC[C@H]2CCCN(C)C2)C1 [I-CBP112 hydrochloride]	0.999
O=[N+]([O-])c1ccc2c(c1)S(=O)(=O)C=C2 [Stattic]	1.04
CC[C@H]1OC(=O)[C@H](C)[C@@H](O[C@H]2C[C@@](C)(OC)[C@@H](O)[C@H](C)O2)[C@H](C)[C@@H](O[C@@H]2O[C@H](C)C[C@H](N(C)C)[C@H]2O)[C@](C)(OC)C[C@@H](C)C(=O)[C@H](C)[C@@H](O)[C@]1(C)O [Clarithromycin]	1.38
COc1ccc(-c2coc3cc(O[C@@H]4O[C@H](CO)[C@@H](O)[C@H](O)[C@H]4O)ccc3c2=O)cc1 [Ononin]	1.02
CN(C)CC[C@H](CSc1ccccc1)Nc1ccc(S(=O)(=O)NC(=O)c2ccc(N3CCN(Cc4ccccc4-c4ccc(Cl)cc4)CC3)cc2)cc1[N+](=O)[O-]	1.24

Source: the supplement of paper PMC10600219
